The values below come from ChEMBL document CHEMBL4888484, “Replenishing the malaria drug discovery pipeline: Screening and hit evaluation of the MMV Hit Generation Library 1 (HGL1) against asexual blood stage Plasmodium falciparum ,using a nano luciferase reporter read-out” (2022).

The whole screen tested about 150,000 compounds, of which about 540 (0.36%) showed an effect of 50% or more. This is one part of the list.

This experiment concerns Plasmodium falciparum. The experiment in a line: Primary screen in NF54 nanoGlo assay, in single point, at 2uM, 72h; a lower Z score goes with more inhibition. It is filed as functional, Erythrocyte. The note with it: timepoint 72 hour.
With `CCCNC(=O)NCc1nnc(C(=O)Nc2ccc3c(c2)OCO3)s1`, the “% Inhibition” value was 26% and the Z score is recorded as -3.03.
The corresponding values for `N#Cc1ccc(C(=O)N[C@H]2CCCN(CC(F)(F)F)C2)s1` are 15% and -1.98.
For `O=C(NCc1ccco1)N[C@H](CO)Cc1c[nH]c2ccccc12`, the “% Inhibition” value came out at 3% and the Z score was -0.38.
For `COc1ccc([C@H]2C[C@@H]2C(=O)N2CCOC(c3ncon3)C2)cc1` (stereo partly specified) the same measures were -4% and 0.58.
Consider `CCc1cnc(NCc2n[nH]c(=O)[nH]2)nc1`, for which the “% Inhibition” value was -4% and the Z score is listed as 0.82.
For `CC(C)COC(=O)NC[C@H]1CCN(C(=O)c2ccoc2)C[C@@H]1O` the same measures were -7% and 0.8.
With `CCOC(=O)c1cc(NC(=O)N2CCN(CC)CC2)c(C)nc1C`, the “% Inhibition” value amounted to 11% and the Z score is recorded as -1.27.
For the compound `CCN1c2cc(C(=O)Nc3ccc(Cl)cc3)ccc2C(=O)N2CCC[C@@H]21`, the “% Inhibition” value worked out at 10% and the Z score is -1.27.
For `Cn1cc2c(n1)CCC[C@@H]2NCc1cc(C(N)=O)c2n1CCCC2` the same measures were -11% and 1.75.
Turning to `N#CC1(NC(=O)c2ccc3c(c2)OCO3)CCCCC1`, the “% Inhibition” value is given as 3% and the Z score is on record as -0.67.
For `O=S(=O)(CC1CCCC1(F)F)NC1COCc2ccccc21` (stereo unspecified) the same measures were 2% and -0.31.
As for `CCOCc1nnc2n1CC(C)(C)CC2`, the “% Inhibition” value was found to be 3% and the Z score was -0.43.
For `O=C(c1cn[nH]c1)N1CCN(c2ccccn2)CC1` the same measures were 15% and -1.98.
For `CCc1nc(CN2CCC[C@@]3(CO)CN(c4cnccn4)CC[C@H]23)no1`, the “% Inhibition” value was -1% and the Z score was found to be 0.22.
The corresponding values for `C[C@@H](CCc1cccn1C)NC(=O)NCCS(C)(=O)=O` are -5% and 0.68.
For `O=C(Nc1ccccc1)N1CCCN(c2nc3cc(Cl)ccc3n3cccc23)CC1` the same measures were 6% and -0.99.
For `CN(Cc1cc(F)c(F)c(F)c1)C(=O)Nc1ccncc1F` the same measures were -2% and 0.26.
`Cc1cc(C)c(CNCc2nc(-c3cccs3)n[nH]2)cc1C`: the “% Inhibition” value is -9% and the Z score was determined as 1.03.
The corresponding values for `CCN1C[C@H](CN(C)C(=O)c2ccc(COC)cc2)Oc2ccccc21` are -1% and 0.21.
As for `C=C(C)CN1CCC(N(C)C(=O)OC(C)(C)C)CC1`, the “% Inhibition” value was -8% and the Z score stood at 1.11.
For `CCCS(=O)(=O)NCCc1cccc(F)c1F` the same measures were 4% and -0.69.
Turning to `CC(C)n1cc(Br)cc1C(=O)N[C@@H](C)CO`, the “% Inhibition” value is reported as -9% and the Z score was 0.94.
For `O=C(NC1Cc2ccccc2C1)c1ccc([C@H]2CCCNC2)cc1` the same measures were -10% and 1.81.
Regarding `COCC[C@](C)(O)CNC(=O)c1ccsc1`, the “% Inhibition” value was -7% and the Z score worked out at 0.77.
With `C[C@@H](CCc1ccco1)n1cnc(-c2ccccc2)c1C1CC1`, the “% Inhibition” value was -3% and the Z score came out at 0.55.
Regarding `Cc1noc([C@]23CN(Cc4cccc(C(=O)O)c4)CC[C@H]2CN(Cc2ccccc2)C3)n1`, the “% Inhibition” value was -6% and the Z score is listed as 0.83.
The corresponding values for `CCN1CCN(CCC(=O)N2CCc3cccc(NC(=O)OC(C)(C)C)c32)CC1` are -5% and 0.87.
For `Cc1ccc(C)c(NC[C@H]2CCCN2)c1` the same measures were -9% and 1.34.
For `COc1cc(Cl)ccc1C(=O)N1CC(F)(F)C[C@H]1C(=O)N1CCc2ccccc2C1`, the “% Inhibition” value is reported as -16% and the Z score was found to be 2.71.
For `CN(Cc1ccc(F)cc1)c1ccc(OCC(=O)N2CCOCC2)nn1` the same measures were -4% and 0.54.
The corresponding values for `CC[C@@]1(C)CCCN(C(=O)C(C)(C)CN)CC1` are -5% and 0.6.
For `COC(=O)[C@H]1CN(S(=O)(=O)c2ccc(Cl)cc2)C[C@@H](C)O1` the same measures were 7% and -0.8.
For the compound `O=S(=O)(Cc1ccccc1)NCCn1ccc(-c2cnccn2)n1`, the “% Inhibition” value was 18% and the Z score is -2.26.
Regarding `CC1(C)C[C@@H]1NC(=O)c1ccnc2[nH]cnc12`, the “% Inhibition” value was 3% and the Z score was -0.47.
For the compound `COC[C@H]1CCCN1C(=O)Nc1ccccc1OCCOc1ccccc1`, the “% Inhibition” value is 7% and the Z score is -0.94.
Regarding `Cc1ccc(-c2nc(CN3CC[C@]4(CCCO4)CCC3=O)c(C)o2)cc1`, the “% Inhibition” value is recorded as 3% and the Z score is given as -0.62.
For `Cc1csc(NC(=O)N2CCCC[C@H]2c2nc(-c3ccccc3)c[nH]2)n1` the same measures were -11% and 1.14.
Turning to `Cc1noc(C)c1CN(C)Cc1nnc(C(C)C)o1`, the “% Inhibition” value is -11% and the Z score came to 1.37.
For `CC1CN(CC(C)(C)O)CCN1C(=O)NCC1Cc2ccccc21` (stereo unspecified), the “% Inhibition” value came out at 12% and the Z score is listed as -1.62.
The corresponding values for `CC1(C(=O)O)CCN(S(=O)(=O)c2csc3ccccc23)CC1` are -8% and 0.97.
The corresponding values for `O=C(Nc1[nH]c(=O)ncc1F)c1cc(F)c(F)cc1Br` are 91% and -7.85.
The corresponding values for `CC(C)Cc1cc(CNC(=O)c2ccc(N3CC(=O)NC3=O)cc2)on1` are -15% and 3.08.
As for `CCc1nc(-c2cccc(NC(=O)c3ccc(NC(C)=O)cc3)c2)no1`, the “% Inhibition” value is reported as -22% and the Z score stood at 3.77.
